Some of the results follow. These are noisy estimates, calculated here from bound and input reads.

For this experiment, the target named is T1, Pho4 (S. cerevisiae) (UniProt P07270).
T1 sequence: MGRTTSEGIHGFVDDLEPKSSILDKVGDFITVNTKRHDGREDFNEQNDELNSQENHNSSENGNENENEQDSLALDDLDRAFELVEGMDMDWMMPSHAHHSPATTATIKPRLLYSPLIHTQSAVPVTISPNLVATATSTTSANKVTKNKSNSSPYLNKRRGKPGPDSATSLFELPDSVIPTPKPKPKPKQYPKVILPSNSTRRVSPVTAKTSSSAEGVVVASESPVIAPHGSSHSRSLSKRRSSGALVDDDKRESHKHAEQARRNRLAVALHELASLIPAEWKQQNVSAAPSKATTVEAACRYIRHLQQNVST
Briefly: relative binding free energy (BET-seq); higher = weaker binding. Conditions: reference: library average.
Consider AAAGGCACGTGTGCGT, for which the “relative binding free energy” value is -0.1 kcal/mol.
The same measure for GCGGTCACGTGGGAAT: 0.09 kcal/mol; for GGGCTCACGTGGTGGA: 0.34 kcal/mol; for TCATTCACGTGTGATT: 0.27 kcal/mol.
As for AGGATCACGTGGCAGG, the figure is 0.2 kcal/mol; as for TTGCGCACGTGATGGT, -0.06 kcal/mol; as for TGAGACACGTGCGGTT, 0.14 kcal/mol.
As for TCAAGCACGTGGCTGG, the figure is -0.07 kcal/mol; as for AGAGGCACGTGGGCGT, -0.18 kcal/mol.
For TAGGTCACGTGAAAAT, the “relative binding free energy” value was 0.26 kcal/mol.
Turning to TCGGTCACGTGTACGT, the “relative binding free energy” value amounted to 0.1 kcal/mol.
The same measure for GTTTGCACGTGATGAA: 0.15 kcal/mol; for GGCGGCACGTGTGGCA: -0.07 kcal/mol.
As for CTGTCCACGTGATGGG, the figure is 0.14 kcal/mol; as for TTGTACACGTGTATTT, 0.17 kcal/mol; as for GGTGGCACGTGGAGTC, -0.08 kcal/mol.
As for GTGGACACGTGCGGAT, the figure is 0.11 kcal/mol; as for GTAGGCACGTGGGTGG, -0.21 kcal/mol; as for TTTCGCACGTGAATTG, 0.24 kcal/mol.
Regarding TTTTGCACGTGCTAGC, the “relative binding free energy” value is 0.07 kcal/mol.
As for AAAGTCACGTGTGGTG, the figure is 0.19 kcal/mol; as for TTGGTCACGTGAGAGC, 0.34 kcal/mol; as for TGGGTCACGTGGACTG, 0.14 kcal/mol.
The same measure for CGGGACACGTGGGATT: 0.02 kcal/mol; for CTGTGCACGTGAGTAG: 0.19 kcal/mol; for GAGTGCACGTGTTAGA: 0.02 kcal/mol.
As for TTGTACACGTGGTGGA, the figure is -0.01 kcal/mol; as for TATTGCACGTGCAGGA, -0.14 kcal/mol; as for TGTCGCACGTGGTGCG, -0.18 kcal/mol.
Consider AATGTCACGTGTTTTA, for which the “relative binding free energy” value is 0.07 kcal/mol.
AGTAACACGTGGTGGA: the “relative binding free energy” value was -0.01 kcal/mol.
As for TACTGCACGTGCGTGG, the figure is -0.15 kcal/mol.
Turning to AATGGCACGTGAGTGT, the “relative binding free energy” value was 0.14 kcal/mol.
The same measure for TGGCACACGTGAGTTA: 0.24 kcal/mol; for GTCGCCACGTGGGGTG: -0.28 kcal/mol; for GTACGCACGTGTTGGG: -0.14 kcal/mol.
With AGTGTCACGTGTGCTA, the “relative binding free energy” value came out at 0 kcal/mol.
The same measure for ATGCGCACGTGGCGGT: -0.3 kcal/mol.
As for TAAGACACGTGGATGG, the figure is 0.05 kcal/mol; as for TGTTACACGTGGGGCA, -0.02 kcal/mol.
As for GTTTTCACGTGATACG, the figure is 0.33 kcal/mol; as for TGAGCCACGTGGTTAG, -0.19 kcal/mol.
In the case of TATGCCACGTGCAGGG, the “relative binding free energy” value was -0.13 kcal/mol.
As for GGCCTCACGTGTTGGA, the figure is 0.44 kcal/mol; as for ATATACACGTGCGTAT, 0 kcal/mol.
As for AGTTTCACGTGTCTTA, the figure is 0.19 kcal/mol.
As for GGGTACACGTGACTGT, the figure is 0.12 kcal/mol; as for TGGGGCACGTGAAGGA, 0.07 kcal/mol.
In the case of GAGGCCACGTGGGAGG, the “relative binding free energy” value is -0.16 kcal/mol.
Regarding GCTCTCACGTGGTTGG, the “relative binding free energy” value was found to be 0.28 kcal/mol.
The same measure for GTGGACACGTGACTTG: 0.23 kcal/mol; for ATAGACACGTGATTGG: 0.14 kcal/mol.
The same measure for GGATACACGTGAGTTT: 0.43 kcal/mol; for TCTGGCACGTGTGAAA: 0.02 kcal/mol; for AATGACACGTGGGGTC: -0.08 kcal/mol.
The same measure for ATTTACACGTGAGGGC: 0.18 kcal/mol; for TGGGGCACGTGGAGCC: -0.06 kcal/mol.

For the origin of these results see the BET-seq Pho4 binding data (Le et al. 2018).
